Data as given in publication PMC4336329 (PLoS ONE, 2015).
Screen size: about 310,000 compounds; about 14,000 (4.5%) showed an effect of 50% or more. The effect is printed as a negative number. This is one part of the list.

Target: human ether-à-go-go-related gene (hERG) potassium channel (human, UniProt Q12809)
Assay: primary screen, population patch clamp on CHO cells stably expressing hERG
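Also: peak tail current of the secondary pulse compared with the same well before compound.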

human ether-à-go-go-related gene (hERG) potassium channel, sequence (Q12809 whole entry, looked up): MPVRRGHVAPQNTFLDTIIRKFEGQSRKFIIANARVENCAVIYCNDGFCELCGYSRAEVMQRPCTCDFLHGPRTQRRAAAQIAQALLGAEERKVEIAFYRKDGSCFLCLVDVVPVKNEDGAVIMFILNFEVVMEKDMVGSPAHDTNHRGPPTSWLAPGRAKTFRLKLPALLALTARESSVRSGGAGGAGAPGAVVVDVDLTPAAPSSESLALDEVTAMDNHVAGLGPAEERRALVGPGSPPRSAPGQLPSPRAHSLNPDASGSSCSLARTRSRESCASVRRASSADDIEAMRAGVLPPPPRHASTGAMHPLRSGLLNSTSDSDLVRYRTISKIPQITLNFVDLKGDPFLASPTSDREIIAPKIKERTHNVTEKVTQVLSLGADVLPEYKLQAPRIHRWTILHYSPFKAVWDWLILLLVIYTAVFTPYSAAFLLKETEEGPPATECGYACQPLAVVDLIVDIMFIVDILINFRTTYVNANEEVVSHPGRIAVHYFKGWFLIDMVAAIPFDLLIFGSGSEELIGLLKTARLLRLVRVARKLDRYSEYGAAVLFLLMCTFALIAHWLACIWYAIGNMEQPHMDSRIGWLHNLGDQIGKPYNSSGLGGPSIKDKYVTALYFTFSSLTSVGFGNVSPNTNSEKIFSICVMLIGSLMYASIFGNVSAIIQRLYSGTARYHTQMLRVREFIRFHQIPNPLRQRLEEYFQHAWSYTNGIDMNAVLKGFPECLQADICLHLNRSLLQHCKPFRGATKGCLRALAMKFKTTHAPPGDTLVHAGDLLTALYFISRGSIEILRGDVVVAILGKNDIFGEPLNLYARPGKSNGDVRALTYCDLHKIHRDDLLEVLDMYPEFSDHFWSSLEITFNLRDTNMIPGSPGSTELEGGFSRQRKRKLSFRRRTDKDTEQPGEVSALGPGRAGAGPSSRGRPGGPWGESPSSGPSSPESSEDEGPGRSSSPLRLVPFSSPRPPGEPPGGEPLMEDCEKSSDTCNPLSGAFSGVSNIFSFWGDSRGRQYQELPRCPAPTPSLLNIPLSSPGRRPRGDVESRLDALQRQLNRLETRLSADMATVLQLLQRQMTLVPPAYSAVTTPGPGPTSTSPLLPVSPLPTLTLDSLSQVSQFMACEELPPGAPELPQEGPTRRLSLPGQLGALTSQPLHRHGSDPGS

| Compound | hERG current change (%, negative = inhibition) at 10uM |
| --- | --- |
| CC(=O)C(Sc1nn(C)c(=S)s1)C(=O)Nc1ccccc1 (centres unmarked) | 3.73% |
| COc1ccc(-c2onc3ccc(C(C)=O)cc23)cc1 | -8.83% |
| CC(=O)c1cnc2nc(C(F)(F)F)nn2c1C | 2.3% |
| COc1ccc(C(C)C)cc1S(=O)(=O)N1CCC(C(=O)NCC2CCCO2)CC1 (centres unmarked) | 1.83% |
| COCC(=O)Nc1ccc2c(c1)OCC(=O)N2Cc1ccc(C)cc1 | -10.2% |
| CC(=O)Nc1cccc(CCc2nc3ccccc3[nH]2)c1 | -0.457% |
| CCC(C)C(NC(=O)/C(=C\c1ccccc1)NC(=O)c1ccc(OC)cc1)C(=O)O (centres unmarked) | 20% |
| O=c1c2ccc([N+](=O)[O-])cc2ncn1CCOc1cccc(Br)c1 | 13.1% |
| Cc1ccccc1-n1c(SCC(=O)c2c(N)n(C)c(=O)n(C)c2=O)nnc1-c1cccnc1 | -15.5% |
| O=C(Nc1ccon1)c1cccc(S(=O)(=O)N2CCCC2)c1 | -0.984% |
| Cc1cc(N2CC(=O)N(CCc3ccccc3)C(=O)C2)n2ncnc2n1 | -15.3% |
| CN(Cc1cnn(C)c1)Cc1nc(C(c2ccccc2)c2ccccc2)no1 | -1.79% |
| O=C(CCS(=O)(=O)c1ccc(Br)cc1)NC1CCCC1 | 11.6% |
| Cc1ccc(-c2nn3c(C)nnc3s2)cc1NC(=O)COc1ccc(Cl)cc1 | -70.6% |
| Cc1nnc(SCCC(=O)Nc2ccccc2Cl)o1 | 0.409% |
| COCCNC(=O)[C@@H]1CCCN1S(=O)(=O)c1cccc2cccnc12 | -1.9% |
| O=C(NCCC(=O)N1CCN(c2ccccc2F)CC1)c1ccco1 | 8.93% |
| COc1ccc(OC)c(-n2c(=S)[nH]c3cc(C(=O)N4CCN(c5ccccc5)CC4)ccc3c2=O)c1 | 10.8% |
| CC(C)(C)Nc1c(-c2ccc(O)cc2)nc2ccc(Cl)cn12 | 4.73% |
| COC(=O)C1(CC2CC(c3ccncc3)=NO2)CCN(C(=O)OC(C)(C)C)CC1 (centres unmarked) | -20.7% |
| COc1ccc(N(C(=O)c2ccco2)C(C(=O)NC2CCCC2)c2ccc(OC)c(OC)c2)cc1 (centres unmarked) | -3.3% |
| COc1cc(NC(=S)N2CCCC(CO)C2)cc(OC)c1 (centres unmarked) | 40.4% |
| CC(=O)Oc1ccc(OC(C)=O)c2c1CC(C)=C(C)C2 | 13.2% |

| Compound | hERG current change (%, negative = inhibition) at 10uM |
| --- | --- |
| N#CC1(C#N)C(C(N)=O)C1c1ccccc1 (centres unmarked) | 23.7% |
| COc1ccc(CC(=O)OCC(=O)NC(=O)NC2CCCC2)cc1 | 1.78% |
| O=C(NCCS(=O)(=O)N1CCN(c2ccccc2F)CC1)c1ccc(Br)o1 | -6.39% |
| COCC1CCCCN1C(=O)c1ccc(OC2CCN(CCc3ccccc3)CC2)cc1 (centres unmarked) | -37.1% |
| Cc1ccccc1NC(=O)CSc1nnc(CNC(=O)c2ccco2)n1C | -3.35% |
| O=C1Nc2ccc(S(=O)(=O)N3CCCC3)c3ccc(S(=O)(=O)N4CCCC4)c1c23 | -9.54% |
| COC(=O)c1ccc(Nc2nc(-c3ccncc3)nc3ccccc23)cc1 | 28.7% |
| CCN(CC(=O)Nc1ccccc1C(F)(F)F)C(=O)C1=COCCO1 | 22.6% |
| O=C(Cn1cnc2ccccc21)OCC(=O)N1CCCc2ccccc21 | 8.8% |
| Cl.O=C(Nc1cc(F)cc(F)c1)c1ccc(NCCCN2CCCCCC2)c([N+](=O)[O-])c1 | -72.1% |
| CCN1CCN(S(=O)(=O)c2ccc(Cl)c(C(=O)N(CC)CC(=O)Nc3ccc(OC)cc3)c2)CC1 | 2.15% |
| Cc1ccc(C(OCC(O)CNC(C)c2ccccc2)c2ccccc2)cc1 (centres unmarked) | -58.2% |
| CCCCNC(=O)c1cn(CC)c2ccc(S(=O)(=O)N3CCCC3)cc2c1=O | -38.1% |
| C#Cc1ccc([C@@H]2C=C(C(=O)NC3CC3)O[C@H](OCCCCO)C2)cc1 | -2.78% |
| c1ccc(Nc2c(-c3ccco3)nc3ccccn23)cc1 | 9.75% |
| Cc1cc(NC(=O)CCC(=O)N(CC(=O)NC2CCCC2)Cc2ccccc2Cl)no1 | -2.01% |
| COc1cc(CCC(=O)OCn2nnc3ccccc3c2=O)cc(OC)c1OC | 13.3% |
| O=C1c2cccc3cccc(c23)C(=O)N1c1ccc(O)cc1 | 6.51% |
| CC(C)CN(C(=O)COC(=O)COc1ccc2c(c1)CCC2)c1c(N)n(Cc2ccccc2)c(=O)[nH]c1=O | -0.239% |
| Cc1ccc(S(=O)(=O)n2cnc3ccccc32)c(C)c1 | -4.8% |
| CC(=O)c1c(C)[nH]c(C(=O)Nc2nccs2)c1C | -4.05% |
| Cc1cccc(NC(=O)CCCc2ccccc2)c1C | 6.64% |
| O=c1[nH]c(Cc2ccccn2)nc2scc(-c3ccc(Cl)cc3)c12 | -3.78% |

| Compound | hERG current change (%, negative = inhibition) at 10uM |
| --- | --- |
| Cc1nn(-c2ccccc2)c2c1CC1(C(=O)N(C)C(=O)N(C)C1=O)C1CCCCN21 (centres unmarked) | 18.8% |
| Cc1c(C#N)c(SCC(N)=O)nc2c1CCCC2 | -3.9% |
| CCS(=O)(=O)N1CCN(CC2CC3C=CC2C3)CC1 (centres unmarked) | 19.1% |
| O=C(CSc1nnc(NC(=O)C2CC(=O)N(c3ccccc3)C2)s1)NC1CCCC1 (centres unmarked) | 9.31% |
| COc1ccc(C(=O)N2CCN(C(=O)c3ccc(-c4ccccc4)cc3)CC2)cc1OC | -43.6% |
| C=C(C)C(=O)Nc1cccc(C2=NOC3(C2)C[C@H](C(N)=O)N(C(=O)/C=C/C)C3)c1 (some centres unmarked) | 3.83% |
| NS(=O)(=O)c1ccc(CCNC(=O)CNC(=O)C2CCCCC2)cc1 | 7.84% |
| CCCCn1c(-c2csc(CC)c2)n[nH]c1=S | 11.5% |
| Cn1c(SCC(=O)NCc2ccccc2)nc2c([nH]c3ccccc32)c1=O | 8.94% |
| O=C(O)C1CCN(Cc2cnn(-c3ccccc3)c2-n2cccc2)CC1 | -21% |
| COc1ccc(CCNC(=O)C2CC(c3ccccc3[N+](=O)[O-])=NO2)cc1 (centres unmarked) | -2.82% |
| CCc1cccc2sc(N3CCN(C(=O)c4ccc([N+](=O)[O-])o4)CC3)nc12 | -44.9% |
| CNC(=O)C(Sc1ccccc1)c1ccccc1 (centres unmarked) | 9.71% |
| Cc1ccccc1C(=O)Oc1ccc(-c2csnn2)cc1 | 16% |
| O=C(NCC1CCCN(Cc2nccs2)C1)c1cccc2ccccc12 (centres unmarked) | 0.477% |
| COC(=O)c1cc(S(=O)(=O)N(C)c2ccc(C)c(C)c2)c[nH]1 | -20.2% |
| O=C(Cc1cccs1)N1CCN=C1SCc1ccccc1F | -11.5% |
| CN/C(=C/[N+](=O)[O-])NCCSCc1csc(CN(C)C)n1 | -11.8% |
| CCCCc1nc(SCC(=O)Nc2nnc(C(C)C)s2)n[nH]1 | 8.79% |
| O=C(NNC(=S)NC(=O)c1ccc(Br)cc1)c1cccc([N+](=O)[O-])c1 | 13.4% |
| CSc1ccccc1NC(=O)COc1ccc(Cl)cc1C | -1.99% |
| C#CC(C)(CC)NC(=O)Cn1nnc(-c2ccc(S(C)(=O)=O)cc2)n1 (centres unmarked) | 1.02% |
| Cc1cc(N2CCCCCC2)n2nc(C)c(-c3ccccc3)c2n1 | 22.9% |

| Compound | hERG current change (%, negative = inhibition) at 10uM |
| --- | --- |
| C=CCNC(=S)NNC(=O)C(CCCC)CC(C)(C)O (centres unmarked) | 7.54% |
| O=C(CSc1n[nH]c(-c2ccccn2)n1)Nc1ccc(Cl)cc1 | -3.48% |
| Cc1c(Cl)cnc(NC(=O)COC(=O)[C@H](C)NC(=O)c2ccccc2)c1Cl | -22.5% |
| COC(=O)CSc1cc(C(F)(F)F)nc(-c2ccccn2)n1 | -0.703% |
| CCOC(=O)C1=C(C)NC(C)=C(C(=O)OCC)C1C(=O)OCC(=O)N1CCCCC1CC (centres unmarked) | 2.53% |
| COCCCNC(=S)Nc1cc2oc3ccccc3c2cc1OC | 6.08% |
| C(=C\c1ccccn1)/c1ccncc1 | 18.2% |
| Cc1nn(CC(O)Cn2c3c(c4ccccc42)CCN(C)C3=O)c(C)c1Br (centres unmarked) | -17.5% |
| CC(C)(C)c1ccc(/C=C(\C#N)C(=O)NCCN2CCOCC2)cc1 | -19.5% |
| Cn1c(=O)cc(OCC(=O)NCCC2=CCCCC2)c2ccccc21 | -10.3% |
| O=C(NC12CC3CC(CC(C3)C1)C2)N1CC2Cc3cccc(=O)n3C(C2)C1 (centres unmarked) | 5.29% |
| Cc1ccc(NC(=O)COC(=O)CCc2ccccc2)c(Cl)c1 | 27.1% |
| CCOC(=O)c1cc(/C(C)=N/OC(=O)c2ccc(C(C)(C)C)cc2)on1 | 14.7% |
| COc1ccc(Nc2cc(Cl)nc(N)n2)cc1 | 20% |
| CCCCNC(=O)CN1C(=O)NC2(CCCc3ccccc32)C1=O (centres unmarked) | 0.44% |
| C/C(=N\NC(=O)c1nnn(-c2nonc2N)c1-c1ccc2c(c1)OCO2)c1cccs1 | 5.22% |
| CCc1cc(C(=O)O)c(NC(=O)/C=C/c2ccc(OC)cc2)s1 | 11.8% |
| CCOC(=O)c1cc([N+](=O)[O-])sc1NC(=O)CC | -18.9% |
| CCOC(=O)Cn1c(=O)oc2cc(S(=O)(=O)N3CCCC(C(=O)OCC)C3)ccc21 (centres unmarked) | -16% |
| CC(NS(=O)(=O)c1ccc(F)cc1)C(c1cccs1)N1CCOCC1 (centres unmarked) | -5.18% |
